# Reference: PubChem BioAssay AID686978 (National Center for Advancing Translational Sciences (NCATS), 2013)
# Out of some 420,000 compounds screened, about 64,000 (15%) were called active. The inconclusive results got no clear call from the source; some entries with a clear call stand among them for comparison. Calls come from the whole dose curve; as a rule, active = well fitted inhibition curve with a large enough effect; inconclusive = small, poorly fitted or top-dose-only effect; inactive = flat fitted curve, though single readings scatter. No potency is given beside an inconclusive call; the fits are too rough.
# Assay: qHTS for Inhibitors of human tyrosyl-DNA phosphodiesterase 1 (TDP1): qHTS in cells in absence of CPT; note: nearly all actives have a fitted effect of over 55% in size
# Conditions: DT40 Tdp1-/- hTDP1 cells, no CPT, ATP luminescence, 48 h; activity change, negative = growth inhibition: at 46.2 µM (top of the series)
# Procedure, shortened: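 Chicken DT40 Tdp1-/- cells complemented with human TDP1, screened without camptothecin (DMSO vehicle only), 400 cells/well. Compounds pin-transferred, cells incubated at 37 °C for at least 48 hr. Growth read as ATP-dependent luminescence (CellTiter-Glo, 30 min at RT).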
# % is set by controls: 0 for no effect and ±100 for the full control effect; potency is the fitted concentration of half-maximal effect; tags give direction and shape of the fitted curve.
Structure (SMILES),Potency,"activity change, negative = growth inhibition"
Cc1cccc(N2CCN(C(=O)CNC(=O)C3CCCCC3)CC2)c1C,"inconclusive [inhibitor, single point]",
COc1ccc(C2CC(c3cccs3)=NN2C(=O)c2ccco2)cc1OC (centres undefined),,inactive: -17%
CC(C)Oc1ccc(C(=O)Nc2ccc([N+](=O)[O-])cc2)cc1,,inactive: -25.3%
CCCC(C(=O)N1CCOCC1)N1C(=O)C2C3C=CC(C3)C2C1=O (centres undefined),,inactive: -3.04%
Cc1ccc(S(=O)(=O)Nc2ccc3c(c2)nc(CCN2CCCCC2)n3C)cc1,"inconclusive [inhibitor, single point]",
CC(=O)Nc1ccc(/C(N=Nc2ccccc2)=N/N=C(N)N)cc1,"inconclusive [inhibitor, single point]",
CS(=O)(=O)N1CCCC(C(=O)Nc2c(F)cccc2F)C1 (centres undefined),,inactive: -4.36%
COCCNC(C(=O)Nc1ccc([N+](=O)[O-])cc1Br)c1ccccc1 (centres undefined),"inconclusive [inhibitor, single point]",
CCn1nc(C(=O)NCc2nnc3ccccn23)c2ccccc2c1=O,,inactive: 2.84%
COc1cccc(NC(=O)CN(C)C(=O)/C=C/c2cn(-c3ccccc3)nc2-c2ccc(C)cc2)c1,"inconclusive [inhibitor, single point]",
CS(=O)(=O)N(CCc1ccccc1)CC(=O)N1CCCCCC1,,inactive: -21.7%
O=C(Nc1ccc(C(=O)N2CCOCC2)cc1)c1cnn2c(C(F)F)cc(-c3ccccc3)nc12,active: 5.8 µM,
CC1CN(CC(=O)N2CCN(Cc3nccn3C)CC2)Cc2cc(Cl)ccc2O1 (centres undefined),,inactive: -2.72%
Cc1ccccc1C(=O)Nc1nnc(-c2ccncc2)o1,"inconclusive [inhibitor, single point]",
O=C1C2CCCCN2C(=O)N1CCCCN1CCN(c2ccccc2Oc2ccccc2)CC1 (centres undefined),"inconclusive [inhibitor, single point]",
COc1cccc(C(=O)Nc2c3c(nn2-c2cccc(C)c2C)CS(=O)C3)c1OC (centres undefined),"inconclusive [inhibitor, single point]",
CCC(C)(C)n1nnnc1C(c1ccc(OC)c(OC)c1)N1CCN(c2cccc(OC)c2)CC1 (centres undefined),"inconclusive [inhibitor, single point]",
CCNc1nc(NCC)n2c(SCC(=O)Nc3ccc(Br)cc3F)nnc2n1,"inconclusive [inhibitor, full curve, poor fit]",
COc1ncc2nc(-c3cc(F)cc(F)c3)c(=O)n(C[C@H]3CCCO3)c2n1,,inactive: 14.7%
CC(=O)Nc1cccc(OCC(=O)NC(C)c2ccc3ccccc3c2)c1 (centres undefined),"inconclusive [inhibitor, partial curve]",
COCCCN1C(=O)c2[nH]nc(-c3ccccc3O)c2C1c1cccc(Cl)c1 (centres undefined),active: 2.91 µM,
COc1ccc(-c2cc(C(F)(F)F)n3ncc(C(=O)NCC4CCCO4)c3n2)cc1 (centres undefined),"inconclusive [inhibitor, full curve]",
COCCNc1nc(Oc2cccc(NC(C)=O)c2)c2sc(-c3ccccc3)cc2n1,"inconclusive [inhibitor, single point]",

Structure (SMILES),Potency,"activity change, negative = growth inhibition"
N#Cc1ccc(N[C@@H]2CCN3C(=O)c4ccccc4[C@@H]3C[C@H]2O)cc1,,inactive: -14%
COc1ccc(/C=C\C(=O)NCC(=O)N/N=C/c2cccc(OC)c2O)cc1,active: 2.59 µM,
CC1CCC(=NNC(=O)c2ccccc2-n2cccc2)CC1 (centres undefined),,inconclusive: -32.9% [inhibitor]
COc1ccc(N(CC(=O)Nc2ccc3c(c2)OCCO3)S(=O)(=O)c2cccnc2)cc1,"inconclusive [inhibitor, single point]",
CNc1snc(C)c1C(=O)OCC(=O)NCc1ccccc1OC,"inconclusive [inhibitor, single point]",
Clc1ccc(OCc2noc(-c3ccsc3)n2)c(Cl)c1,,inactive: -24.6%
CCCOc1ccc(S(=O)(=O)N2CCN(C)CC2)c2ccccc12,"inconclusive [inhibitor, partial curve, poor fit]",
FC(F)(F)c1ccccc1Cc1c(-c2ccccc2)nc2ccc(Cl)cn12,"inconclusive [inhibitor, single point]",
CCNc1nc(NCC)n2c(SCC(=O)c3ccccc3Cl)nnc2n1,"inconclusive [inhibitor, single point]",
CCOc1cc([N+](=O)[O-])cc(/C=C2/NC(=O)N(Cc3ccccc3F)C2=O)c1O,"inconclusive [inhibitor, partial curve]",
C[C@@H]1CN([C@@H](C)CO)S(=O)(=O)c2ccc(C#CC(C)(C)O)cc2O[C@H]1CN(C)C(=O)C1CCCCC1,"inconclusive [inhibitor, single point]",
COCc1c(C(=O)N/N=C/c2c[nH]c3ccccc23)nnn1-c1nonc1N,"inconclusive [inhibitor, partial curve]",
COc1ccccc1/C=C/CN1CCC(CO)(Cc2ccccc2)CC1,"inconclusive [inhibitor, partial curve, poor fit]",
Cc1ccc(C)c(OCCCCn2cnc3ccccc3c2=O)c1,"inconclusive [inhibitor, single point]",
CC1(C(=O)NCc2ccc3c(c2)OCO3)CCN1C(=O)C1(c2ccc(Cl)cc2)CC1 (centres undefined),"inconclusive [inhibitor, partial curve]",
O=S(=O)(NCc1ccccc1)[C@@H]1CC2C=CC1C2 (some centres undefined),"inconclusive [inhibitor, single point]",
CC(C)(C)OC(=O)N[C@@H](/C=C/c1ccccc1)C(=O)OC(C)(C)C,"inconclusive [inhibitor, single point]",
COC(CNC(=O)c1cc(-c2ccncc2)nc2ccc(S(=O)(=O)N3CCOCC3)cc12)OC,,inactive: -9.93%
Cc1ccc(C)c(NC(=S)NCc2ccc3[nH]c4c(c3c2)CCCC4)c1,"inconclusive [inhibitor, single point]",
CCn1cc(CN2CCCC(C(=O)Nc3cccc(-c4cc5ccccc5[nH]4)c3)C2)cn1 (centres undefined),"inconclusive [inhibitor, single point]",
Cc1ccc(-n2nnnc2CNC(=O)c2cc(C(F)(F)F)cc(C(F)(F)F)c2)cc1C,active: 16.4 µM,
N#Cc1cccc(NC(=O)N2CC[C@@]3(CCCN(C(=O)c4cnccn4)C3)C2)c1,,inactive: -7.58%
CC(=O)Nc1ccc(S(=O)(=O)Nc2ccc(N3CCOCC3)cc2)cc1,,inactive: -16.8%

Structure (SMILES),Potency,"activity change, negative = growth inhibition"
O=C(Cn1nc(C(F)(F)F)c2c1CCCC2)Nc1ccc(Br)cc1,"inconclusive [inhibitor, single point]",
COCCNC(=S)N1CCC2CC1c1c(Cl)cccc12 (centres undefined),"inconclusive [inhibitor, partial curve]",
O=C(CN1C(=O)/C(=C\c2ccco2)SC1=S)Nc1ccc(O)cc1C(=O)O,,inactive: -0.0773%
C1=C(c2ccccc2)CCN(c2ncnc3nc[nH]c23)C1,"inconclusive [inhibitor, single point]",
CCCOc1cc(C)nc(-c2ccccc2O)n1,"inconclusive [inhibitor, single point]",
O=C(CCSc1ccc(Cl)cc1)NC1CCCCC1,,inconclusive: -32.6% [inhibitor]
CN(C)Cc1ccccc1C(O)(c1ccccc1)c1ccccc1,"inconclusive [inhibitor, single point]",
CCCCOC(=O)CC(CC(=O)OCCCC)(OC(C)=O)C(=O)OCCCC,"inconclusive [inhibitor, single point]",
Clc1ccc(OCc2nn3c(-c4ccncc4)nnc3s2)cc1,"inconclusive [inhibitor, single point]",
COc1ccccc1S(=O)(=O)Cc1ccc(C(=O)NCc2ccc(Cl)cc2)o1,active: 18.4 µM,
COc1ccc(N(CC(=O)NCc2ccco2)S(=O)(=O)c2ccc(C)cc2)cc1OC,,inactive: -38.4%
Cc1ccc(N2CCN(S(=O)(=O)c3cccc4ccccc34)CC2)cc1Cl,,inactive: -21%
COc1cccc(CNC(=O)CCC2CCCN(Cc3ccc4c(c3)CCO4)C2)c1 (centres undefined),,inactive: -6.29%
Cc1ccccc1CCN(C(=O)c1csnn1)C(C(=O)NC1CCCC1)c1ccco1 (centres undefined),"inconclusive [inhibitor, single point]",
CCCCCOc1ccc(C(=O)CCC(=O)N2CCCC2)cc1,"inconclusive [inhibitor, single point]",
COC(=O)/C(C#N)=C/c1c(N2CCN(c3cccc(Cl)c3)CC2)nc2c(C)cccn2c1=O,"inconclusive [inhibitor, single point]",
N#Cc1c(-c2ccc(Cl)cc2)c(-c2ccc(Cl)cc2)nn(CCOC(=O)CCC(=O)O)c1=O,"inconclusive [inhibitor, single point]",
COc1ccc(N2CCN(CCC3Oc4cc([N+](=O)[O-])ccc4NC3=O)CC2)cc1 (centres undefined),"inconclusive [inhibitor, partial curve]",
CCn1c(C)c(C(C)=O)c(N2CCN(c3ccc(F)cc3)CC2)nc1=S,,inactive: -3.45%
COc1ccc(-n2ncc3c(NC4CCCC4)ncnc32)cc1,"inconclusive [inhibitor, single point]",
COc1ccccc1CNC(=O)CCCC(=O)n1ncc2cc(C)ccc21,,inactive: 1.44%
O=C(Nc1cccc(C(F)(F)F)c1)c1cc(CN2CCOCC2)on1,"inconclusive [inhibitor, single point]",
CCCCn1c(N)c(N(CC(C)C)C(=O)CC(NC(=O)c2ccccc2Cl)c2ccccc2)c(=O)[nH]c1=O (centres undefined),,inactive: -36.2%
